# From the supplement of paper PMC3334620
# Over roughly 33,000 sequences, “E-score (-0.5 to 0.5)” has its median near -0.036; the highest 2% begin near 0.37. This is one part of the list.
# Target: T1, Yer064c (UniProt P40041)
# T1 sequence: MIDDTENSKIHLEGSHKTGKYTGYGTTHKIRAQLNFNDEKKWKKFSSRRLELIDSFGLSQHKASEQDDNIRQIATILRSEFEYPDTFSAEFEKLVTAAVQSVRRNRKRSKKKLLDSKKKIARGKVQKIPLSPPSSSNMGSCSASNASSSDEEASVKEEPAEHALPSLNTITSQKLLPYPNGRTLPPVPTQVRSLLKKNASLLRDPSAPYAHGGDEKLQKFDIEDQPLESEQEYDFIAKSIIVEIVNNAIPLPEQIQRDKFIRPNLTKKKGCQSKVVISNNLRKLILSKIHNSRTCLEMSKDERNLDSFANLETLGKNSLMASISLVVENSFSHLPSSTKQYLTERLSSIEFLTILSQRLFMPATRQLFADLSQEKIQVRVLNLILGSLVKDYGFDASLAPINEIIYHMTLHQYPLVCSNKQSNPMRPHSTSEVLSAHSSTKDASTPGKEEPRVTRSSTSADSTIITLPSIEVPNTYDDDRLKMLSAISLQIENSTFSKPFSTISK
# Assay: PBM E-score (8-mer binding enrichment) (E-score (-0.5 to 0.5)); higher = stronger / more preferred TF binding; most listed sequences are background and not binding sites
# Details: protein concentration: 200 nM; construct: GST-full length
# How it was run: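 Detection of bound protein used fluorescent anti-GST, with scans normalised by masliner. The proteins were GST-tagged yeast transcription factors applied at about 100-200 nM to universal all-10-mer Agilent arrays made double-stranded by primer extension. Each ungapped eight-base word, pooled with its reverse complement, was scored with an E-score from the Universal PBM Analysis Suite.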
row,Sequence,PBM E-score
1,GTAGGTAA,0.0229
2,ATAACGCA,-0.0857
3,CCGGAAAG,-0.251
4,TGTAAACA,0.0346
5,CATCGCTA,0.0273
6,CGGGAAAG,-0.127
7,ACGGTCAT,-0.0935
8,CTTCTGTC,0.00897
9,CTCTGACC,0.0452
10,CGCATTTC,-0.197
11,ACATGTAC,-0.098
12,ACCCATGA,0.169
13,ACCCCCGA,-0.132
14,GCATACCA,-0.129
15,TGGATCAA,0.073
16,ACGGATGC,-0.0804
17,CCAAATCA,0.228
18,CACGGAGC,0.0145
19,GGGAACTA,-0.212
20,GGACGTAA,-0.293
21,GATGAAGA,-0.00651
22,AGAGTGGC,-0.198
23,GGCTCCAA,-0.0978
24,GAGCCCGC,-0.28
25,ATCGCATC,-0.0513

row,Sequence,PBM E-score
1,AGTCTGTA,0.13
2,CAGTCGAC,0.206
3,ATAGACCC,-0.139
4,AGTCCTGC,0.241
5,CTGAGCAC,-0.115
6,CCCCCTGC,-0.373
7,AACTATCT,-0.0503
8,GCCTCCCC,-0.276
9,CTCGTCGA,0.084
10,AACTGAAT,0.101
11,GCAGACGC,-0.184
12,AAGGGGTC,-0.248
13,GAGGTACA,0.0616
14,CTATTCGC,0.0448
15,GTAATCAA,0.325
16,CAACTTGG,-0.133
17,AGGGTGAG,-0.0352
18,CGACATTC,0.0785
19,AGAGTACT,0.229
20,ATATCCTC,-0.209
21,GACCTTAA,0.0176
22,CTATATCC,-0.261
23,AGGGTGAC,0.225
24,CGGCAAGC,-0.179
25,ATTCATAA,0.254

row,Sequence,PBM E-score
1,CCGCACAG,-0.23
2,AGGCAATG,-0.0199
3,CTCGTGCC,-0.293
4,CCCTGGCG,-0.262
5,CCATGACA,0.0562
6,CTGCTGGA,-0.116
7,CAGTATCG,0.0472
8,ACAAGCCA,-0.142
9,ACCTATTA,-0.0852
10,ATAAACTC,0.135
11,GAAGTCCC,-0.2
12,GACGGGAA,0.0725
13,AGATTTCG,0.0946
14,AGAGTTGA,0.111
15,CATTTCTA,-0.167
16,GAACCCAC,0.0424
17,ACCGGCCG,-0.036
18,TGTACCAA,-0.125
19,GTGACCAA,0.0885
20,ATGATACG,0.0921
21,CTCTGGCC,-0.207
22,ATTGGCTA,0.0683
23,GTAACGTA,0.0151
24,CTTTATCC,-0.198
25,CTCGGCAA,-0.207

row,Sequence,PBM E-score
1,CAAGCAAC,-0.00895
2,ACCGAAGA,0.181
3,AATTCTAG,-0.0015
4,AATCAATT,0.188
5,AGCTAGCG,-0.219
6,ATACGTCC,-0.287
7,AGGATACC,-0.154
8,AGGCACTA,-0.154
9,AGTTTAGA,-0.0499
10,ACAAGTCG,0.0706
11,ACAGATCC,-0.0694
12,CCTATAAG,-0.126
13,AGGTGGAA,0.0297
14,AAACACGT,-0.0663
15,AGCGACCG,-0.103
16,AACGGCGG,-0.0937
17,CAACAGGG,-0.202
18,CTTGTTCA,-0.0481
19,ACAGTGGG,-0.212
20,AAAGTATA,0.0308
21,CCGTACGG,-0.224
22,ATAACGAA,0.115
23,CAAGGTTA,0.0273
24,ACCTCCGC,-0.183
25,CAGACCAA,0.102

row,Sequence,PBM E-score
1,CAAGCACA,-0.031
2,AATAATTG,-0.0748
3,GTCGTGAA,-0.0162
4,TGCCAGCA,-0.0413
5,GCGGTACC,-0.0312
6,GAATTAGC,-0.216
7,AACACACA,0.197
8,TGCGCAAA,-0.0488
9,GAGATCAC,0.0494
10,AAAGTAAT,0.152
11,AGAAGTAC,-0.1
12,TCACAGCA,0.018
13,CCGATAGA,-0.0968
14,CAACAACG,0.141
15,CCTTTAGA,-0.115
16,CAGTAAAA,-0.0284
17,ACGGTATC,-0.154
18,ATCGTGAA,0.0367
19,CCGTGGTA,0.0118
20,CCAGAAAA,0.0439
21,CTAATGAC,0.22
22,AACGGCCC,-0.177
23,CATCATAA,0.0722
24,GCAATAGC,-0.253
25,CTTCTTCA,-0.0634

row,Sequence,PBM E-score
1,GGTCGACC,-0.0461
2,CGCAATGA,0.208
3,ATCAGTAA,0.0818
4,CATGCCCG,-0.0742
5,GCAAAATA,0.0652
6,TAAGAATA,-0.0834
7,ATGCGTCG,-0.166
8,ACAGAGTG,0.0565
9,AGAATAAA,0.114
10,GACGGCTA,-0.172
11,AGGGACAT,-0.183
12,AATGATAT,0.0776
13,GTGCCTAA,-0.163
14,CTTACTGA,0.0728
15,CGTTATGC,-0.195
16,CGGCCTAC,-0.159
17,ACTTTGTA,0.186
18,CCCGATAG,-0.158
19,ATCTACAC,0.117
20,CAATTCCA,-0.297
21,CCCCTACC,-0.124
22,ACAAAAAG,0.0753
23,ATGCTGAC,0.172
24,GAAGTAGA,-0.0301
25,ACAAGCAT,-0.175

row,Sequence,PBM E-score
1,AGCCACAG,-0.0759
2,CGATGCTC,-0.245
3,TCACTGCA,0.216
4,TAAACGGA,-0.0658
5,CGATACGA,0.0406
6,ACTTTTAT,0.00893
7,GGGTAATA,0.00782
8,ATCATTTG,0.208
9,AATAAGAT,0.0112
10,TAGCGTGA,0.194
11,TGGGTACA,0.0823
12,CGGCTCGC,-0.149
13,TTAGCGAA,-0.0547
14,CATTGAAG,0.0114
15,CAGCAAAC,0.0396
16,GATATGTA,-0.0516
17,CCCTACTA,-0.133
18,CCGACCAC,0.0305
19,AAATTACT,0.118
20,CTGCTAGC,-0.08
21,CTGAATTA,0.0399
22,AGCGCAAT,0.0807
